The chains are these.
B1: glmS ribozyme (parent)
chain: AUAAAAGCGCCAGAACUACAGAAAUGUAGUUGACGAGGAGGAGGUUUAUCGAAUUUUCGGCGGAUGCCUCCAAA

Settings in all cases: with glucosamine-6-phosphate
In series [1] the parent is B1. The experiment in a line: self-cleavage kobs at 640 uM GlcN6P; higher = faster cleavage; RNA array. Summed up:
(§1)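 In situ transcription by E. coli RNA polymerase produced barcoded ribozyme variants on sequenced MiSeq chips, and a hybridised Cy3 probe tracked them at 37 °C. Glucosamine-6-phosphate was flowed in at 40 μM to 10 mM in HEPES/KCl/Mg(OAc)2 buffer. kcat and KM were taken from weighted Michaelis–Menten fits of kobs values from exponential decay fits.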

Series [2] covers variants of B1. The experiment in a line: self-cleavage kobs at 160 uM GlcN6P; higher = faster cleavage; RNA array. Summed up:
as §1

In series [3] the parent is B1. The experiment in a line: self-cleavage kobs at 2500 uM GlcN6P; higher = faster cleavage; RNA array. Summed up:
as §1

Variants of B1 are the subject of series [4]. The experiment in a line: self-cleavage kobs at 10000 uM GlcN6P; higher = faster cleavage; RNA array. Summed up:
as §1

The record followed here is the supplement of paper PMC7125110.

± gives the standard error. Variants at the background level are over-represented here.

Consider AUAAAAGCGCGUGAACUACAGAAAUGUAGAUGCCGAGGAGAAGGUUUAUCGAAUUUUCGGCGCAUGCCUCCAAA, for which the “self-cleavage kobs at 640 uM GlcN6P” value in the series with glucosamine-6-phosphate [1] was < 1e-05 s⁻¹. The “self-cleavage kobs at 160 uM GlcN6P” value with glucosamine-6-phosphate [2] was < 1e-05 s⁻¹. In addition, the “self-cleavage kobs at 2500 uM GlcN6P” value with glucosamine-6-phosphate [3] is < 1e-05 s⁻¹.

Consider AUAAAAGCGCCGGAACUACAGAAAUGUAGUUGACGAGGAGGAGGUUUAUCGAAUUUUCGGCGGAUGCCCCCAAA, for which the “self-cleavage kobs at 640 uM GlcN6P” value with glucosamine-6-phosphate [1] came out at 0.000152 ± 2e-05 s⁻¹. For the same variant, the “self-cleavage kobs at 2500 uM GlcN6P” value in the series with glucosamine-6-phosphate [3] was found to be 0.000243 ± 5.4e-05 s⁻¹. Further, the “self-cleavage kobs at 10000 uM GlcN6P” value with glucosamine-6-phosphate [4] turned out to be 0.0007 ± 8.2e-05 s⁻¹.

Turning to AUAAAAGCGCCCGAACUACAGAAAUGUAGUUGACGAGGAGGAGGUUUAUCGAAUUUUCGGCUGAUGACUCCAAA, in the series with glucosamine-6-phosphate [1], the “self-cleavage kobs at 640 uM GlcN6P” value is < 1e-05 s⁻¹.

Take AUAAAAGCGCCGGAACUACAGAAAUGUAGUUGACGAGGAGGAGUUUUAUCGAAUUUUCGGCGGAUGCCUCCAAA: the “self-cleavage kobs at 640 uM GlcN6P” value with glucosamine-6-phosphate [1] was < 1e-05 s⁻¹.

On to AUAAAAGCGCCUGAACUACAGAAAUGUAGUUGACAAGGUGGUGGUUUAACGAAUUUUAGGCGGAUGCCUCCAAA, for which the “self-cleavage kobs at 640 uM GlcN6P” value with glucosamine-6-phosphate [1] is < 1e-05 s⁻¹. Also, the “self-cleavage kobs at 160 uM GlcN6P” value with glucosamine-6-phosphate [2] was < 1e-05 s⁻¹. For the same variant, the “self-cleavage kobs at 2500 uM GlcN6P” value with glucosamine-6-phosphate [3] was < 1e-05 s⁻¹. Also, the “self-cleavage kobs at 10000 uM GlcN6P” value with glucosamine-6-phosphate [4] is < 1e-05 s⁻¹.

Consider AUAAAAGCGCCGGAACUACAGAAAUGUAGUUGACGAGGAGUAGGUUUAUCGAAUUUUCGGCGGAUGCGUGCAAA, for which, in the series with glucosamine-6-phosphate [1], the “self-cleavage kobs at 640 uM GlcN6P” value is < 1e-05 s⁻¹.

Take AUAAAAGCGCCGGAACUACAGAAAUGUAGUUGAGGAGGAGGAGGUGUAUCGAAUUUUCGGUGGAUGCAUCCAAA: in the series with glucosamine-6-phosphate [1], the “self-cleavage kobs at 640 uM GlcN6P” value is < 1e-05 s⁻¹. The “self-cleavage kobs at 2500 uM GlcN6P” value with glucosamine-6-phosphate [3] was < 1e-05 s⁻¹.

With AUAAAAGCGCCCGAAUUACAGAAAUGUAGUUGGCGAGGAGGAGGUUUAUCGAAUUUUCGGCGGAUGCCUCCAAA, the “self-cleavage kobs at 640 uM GlcN6P” value with glucosamine-6-phosphate [1] is < 1e-05 s⁻¹. Further, the “self-cleavage kobs at 10000 uM GlcN6P” value in the series with glucosamine-6-phosphate [4] was < 1e-05 s⁻¹.

AUAAAAGCGCCUGAACUACAGAAAUGUAGUUGACGAGGAGGAGGUUUAUCGAAUUGUCGGCGGAUCCCUCCAAA: in the series with glucosamine-6-phosphate [1], the “self-cleavage kobs at 640 uM GlcN6P” value was 0.000374 ± 9e-05 s⁻¹. In addition, the “self-cleavage kobs at 160 uM GlcN6P” value in the series with glucosamine-6-phosphate [2] was found to be 0.000132 ± 3.1e-05 s⁻¹. Besides, in the series with glucosamine-6-phosphate [3], the “self-cleavage kobs at 2500 uM GlcN6P” value was found to be 0.000708 ± 0.00017 s⁻¹.

For the variant AUAAAAGCGCCCGAACUACCGAAAUGUAGUUGACGAGGAGGAGGUUUAUCGAAUUUUCGGCGGAUGCCUCCAAA, the “self-cleavage kobs at 640 uM GlcN6P” value with glucosamine-6-phosphate [1] stood at 0.00491 ± 0.0012 s⁻¹. In addition, the “self-cleavage kobs at 2500 uM GlcN6P” value with glucosamine-6-phosphate [3] is 0.0118 ± 0.0035 s⁻¹.

As to AUAAAAGCGCUACAACUACAGAAAUGUAGUUGACGAGGAGGAGGUUUAUCGAAUUUUCGGCAGAUGCCUCCAAA, the “self-cleavage kobs at 640 uM GlcN6P” value in the series with glucosamine-6-phosphate [1] is < 1e-05 s⁻¹. Further, the “self-cleavage kobs at 160 uM GlcN6P” value in the series with glucosamine-6-phosphate [2] is < 1e-05 s⁻¹. The “self-cleavage kobs at 2500 uM GlcN6P” value in the series with glucosamine-6-phosphate [3] is < 1e-05 s⁻¹.

As for AUAAAAGCGCUAGAACUACAGAAAUGUAGUUGCCGAGGAGAAGGUUUAUCGAAUUUUCGGCGGAUGCCUCCAAA, in the series with glucosamine-6-phosphate [1], the “self-cleavage kobs at 640 uM GlcN6P” value is < 1e-05 s⁻¹.

Take AUAAAAGCGCUAGAACUACAGAAAUGUAGUUGACGAGGAGGAGGUUUAUCGAAUUAUCGGCGGAUGCCUGCAAA: the “self-cleavage kobs at 640 uM GlcN6P” value with glucosamine-6-phosphate [1] was 0.000217 ± 5.8e-05 s⁻¹. The “self-cleavage kobs at 2500 uM GlcN6P” value with glucosamine-6-phosphate [3] amounted to 0.000145 ± 3e-05 s⁻¹.

Regarding AUAAAAGCGCGAGAACUACAGAAAUGUAGUUGACGAGGAGGCGGUUUAUCGAAUUUUCGGCUGAUGCCUCCAAA, the “self-cleavage kobs at 640 uM GlcN6P” value in the series with glucosamine-6-phosphate [1] is < 1e-05 s⁻¹. Besides, the “self-cleavage kobs at 2500 uM GlcN6P” value with glucosamine-6-phosphate [3] was < 1e-05 s⁻¹.

For AUAAAAGCGCUAGAACUACAGAAAUGUAGUUCACGAGGAGGAGGUUUAUCGAAUUUUCGGCAGAUGCCUCCAAA, the “self-cleavage kobs at 640 uM GlcN6P” value with glucosamine-6-phosphate [1] is < 1e-05 s⁻¹. Also, the “self-cleavage kobs at 160 uM GlcN6P” value in the series with glucosamine-6-phosphate [2] is < 1e-05 s⁻¹. Besides, the “self-cleavage kobs at 2500 uM GlcN6P” value with glucosamine-6-phosphate [3] was < 1e-05 s⁻¹.

Consider AUAAAAGCGCUAGAACUACAGAAAUGUAGUUGACGAGGCGGAGGUUUAUCGAAUUUUCGGCGGAUGCCUCCAAA, for which the “self-cleavage kobs at 640 uM GlcN6P” value in the series with glucosamine-6-phosphate [1] stood at 8.75e-05 ± 1.3e-05 s⁻¹. Further, the “self-cleavage kobs at 2500 uM GlcN6P” value with glucosamine-6-phosphate [3] is 0.000299 ± 5e-05 s⁻¹. The “self-cleavage kobs at 10000 uM GlcN6P” value with glucosamine-6-phosphate [4] came out at 0.00051 ± 5.5e-05 s⁻¹.

Turning to AUAAAAGCGCCGGAACUACAGAAAUGUAGUUGACGAGGAGGAGGUUUUUCGAAUUUUCGGCGGAUGCCUACAAA, in the series with glucosamine-6-phosphate [1], the “self-cleavage kobs at 640 uM GlcN6P” value is < 1e-05 s⁻¹.
